# In all, about 310,000 compounds went through this assay and about 14,000 (4.5%) showed an effect of 50% or more. The effect is printed as a negative number. The list shows a part of the results.
# Molecular target: human ether-à-go-go-related gene (hERG) potassium channel (human, UniProt Q12809)
# Test: primary screen, population patch clamp on CHO cells stably expressing hERG
# 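Further: peak tail current of the secondary pulse compared with the same well before compound.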
# Chain of human ether-à-go-go-related gene (hERG) potassium channel (Q12809 whole entry, looked up): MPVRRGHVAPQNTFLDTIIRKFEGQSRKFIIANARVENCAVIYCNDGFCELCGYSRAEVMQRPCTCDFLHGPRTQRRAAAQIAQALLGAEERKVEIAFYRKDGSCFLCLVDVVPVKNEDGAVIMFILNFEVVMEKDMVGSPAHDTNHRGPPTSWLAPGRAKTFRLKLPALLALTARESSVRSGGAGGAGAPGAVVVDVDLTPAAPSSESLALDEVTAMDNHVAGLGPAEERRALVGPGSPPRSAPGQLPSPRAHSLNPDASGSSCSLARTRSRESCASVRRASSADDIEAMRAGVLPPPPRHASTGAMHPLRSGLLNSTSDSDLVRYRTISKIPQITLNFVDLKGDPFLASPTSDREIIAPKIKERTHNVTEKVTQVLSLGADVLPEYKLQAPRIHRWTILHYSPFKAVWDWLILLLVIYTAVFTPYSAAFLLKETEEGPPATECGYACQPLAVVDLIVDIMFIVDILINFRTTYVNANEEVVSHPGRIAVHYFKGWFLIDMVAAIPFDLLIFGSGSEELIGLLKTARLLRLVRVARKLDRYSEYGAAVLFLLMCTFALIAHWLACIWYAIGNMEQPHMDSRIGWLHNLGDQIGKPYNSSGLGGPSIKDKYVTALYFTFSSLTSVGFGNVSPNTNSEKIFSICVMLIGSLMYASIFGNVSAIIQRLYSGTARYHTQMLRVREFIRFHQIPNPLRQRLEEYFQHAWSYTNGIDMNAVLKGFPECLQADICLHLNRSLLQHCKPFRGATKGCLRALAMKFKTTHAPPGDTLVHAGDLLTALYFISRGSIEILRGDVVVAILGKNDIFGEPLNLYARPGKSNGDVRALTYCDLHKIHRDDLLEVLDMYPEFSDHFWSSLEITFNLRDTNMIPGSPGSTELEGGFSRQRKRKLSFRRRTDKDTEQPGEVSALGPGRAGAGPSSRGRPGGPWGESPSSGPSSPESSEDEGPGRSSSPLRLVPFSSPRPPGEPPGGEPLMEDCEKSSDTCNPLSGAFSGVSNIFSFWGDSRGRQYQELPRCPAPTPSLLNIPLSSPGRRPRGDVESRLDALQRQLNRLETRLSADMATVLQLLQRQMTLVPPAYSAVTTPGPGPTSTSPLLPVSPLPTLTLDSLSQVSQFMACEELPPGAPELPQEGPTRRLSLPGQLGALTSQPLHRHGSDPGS
row,SMILES,"hERG current change (%, negative = inhibition) at 10uM [%]"
1,CCN(CCNC(=O)CCCn1nc(C)n2c(cc3sccc32)c1=O)c1ccccc1,-36.5
2,Cc1ccc(NC(=O)C2CC(Cl)=CCC2C(=O)O)c([N+](=O)[O-])c1 (stereo not drawn),-0.391
3,CCOC(=O)c1cc(=O)c2ccc(OCC(=O)Nc3ccc(F)cc3)cc2o1,4.23
4,Cc1ccc(S(=O)(=O)NCCC(=O)OCC(=O)N2CCCC2=O)cc1,-12.2
5,O=[N+]([O-])c1cc(C(F)(F)F)cc([N+](=O)[O-])c1NCCCNc1ccc([N+](=O)[O-])c2cccnc12,14.4
6,CCn1c(=O)cc(OCC(=O)Nc2ccc(OC)c(OC)c2)c2ccccc21,-6.27
7,CCOCCn1c(CN2CCCCC2C)nc2c1c(=O)n(C)c(=O)n2C (stereo not drawn),1.44
8,Cc1ccc(SC(C)C(=O)O/N=C(\N)c2ccncc2)cc1 (stereo not drawn),8.12
9,COc1ccccc1CNC(=O)CSc1cc(=O)n(C)c2ccccc12,-2.22
10,CNCc1sccc1C.Cl,14.3
11,Cc1nn(C2CCS(=O)(=O)C2)c(C)c1C=O (stereo not drawn),1.67
12,C#CCn1c(=O)c2c(ncn2C)n(C)c1=O,11
13,N#CCCN(C(=O)COC(=O)CCc1c[nH]c2ccccc12)c1ccccc1,4.67
14,Cc1ccc(C)c(NC(=O)c2ccccc2Sc2ccc([N+](=O)[O-])cc2Cl)c1,15.5
15,COc1cccc(NC(=O)CN(C)CC(=O)Nc2ccc(C)c([N+](=O)[O-])c2)c1,-15.8
16,COc1ccc(NC2CCCN(C(=O)c3ccccc3N3CCOCC3)C2)cc1OC (stereo not drawn),8.44
17,C/C(Cn1nnc2ccccc21)=N\NC(=O)c1ccc(Br)cc1,-18.3
18,COCCCn1c(C(=O)N2CC(C)OC(C)C2)cc2c(=O)n3ccccc3nc21 (stereo not drawn),-9.36
19,Oc1[nH]c(=S)sc1C=C1N=c2ccccc2=N1,20.7
20,COc1cccc(C(=O)NCCN2C(=O)S/C(=C/c3cccs3)C2=O)c1OC,-19.6
21,CCCOc1ccc(-c2csc(N)n2)cc1[N+](=O)[O-],5.06
22,CCOC(=O)N1CCC2(CC1)C(C(=O)C13CC4CC(CC(C4)C1)C3)C2(C#N)C#N (stereo not drawn),-18.2

row,SMILES,"hERG current change (%, negative = inhibition) at 10uM [%]"
1,CSc1ccccc1C(=O)C1CCCN(C(=O)c2csnn2)C1 (stereo not drawn),-18.1
2,Cc1oc2nc(SCC(=O)N3CCCCC3)nc(N)c2c1C,-12
3,CC(=O)Nc1ccc(S(=O)(=O)NCc2ccncc2)cc1,-7.33
4,O=C(Nc1ccc(Cl)cc1)OCCn1nnnc1C(c1ccccc1)N1CCOCC1 (stereo not drawn),-36.5
5,Cc1ccc(NC(=O)C2(S(=O)(=O)c3ccc(Cl)cc3)CC2)c(Br)c1,-1.09
6,O=C(NCc1ccccc1Cl)c1ccc(Br)o1,14.9
7,O=C(c1cc2ccccn2n1)N1CCC2(CC1)OCCO2,0.189
8,CC[C@H](C)[C@H](NC(N)=O)C(=O)Nc1ccc(C)cc1,1.35
9,COc1ccc(OC2CCN(S(=O)(=O)c3ccccc3)CC2)cc1,-11.6
10,CCCOc1ccc(N2C(=O)C3C(C(C)C)NC4(C(=O)c5ccccc5C4=O)C3C2=O)cc1 (stereo not drawn),-0.496
11,O=C1c2ccccc2C(=O)N1CCCCN(C(=O)c1cccc([N+](=O)[O-])c1)c1ccc(Cl)cc1,-7.96
12,COc1ccccc1NC(=S)N(CCCN1CCOCC1)Cc1cn(C)c2ccccc12,-2.2
13,Cc1cccc(C)c1NC(=O)CNC(=O)CNC(=O)c1ccc2c(c1)OCO2,-1.78
14,COCCN(C(=S)Nc1cc(C)cc(C)c1)C(C)c1cccs1 (stereo not drawn),3.56
15,CC1CCN(CC(=O)c2c[nH]c3ccccc23)CC1,-21.5
16,CCOC(=O)C1CCCN(C2=NC(=O)/C(=C/c3ccc(O)c(OCC)c3)S2)C1 (stereo not drawn),-27
17,Cn1nc(C(C)(C)C)cc1NC(=O)Nc1cc(Cl)cc(Cl)c1,13.2
18,CC1CCN(c2nc3c(=O)[nH]c(N)nc3n2[C@@H]2O[C@H](CO)[C@@H](O)[C@H]2O)CC1,13.6
19,O=C(C1CCN(S(=O)(=O)c2ccccc2F)CC1)N1CCc2ccccc21,-31.8
20,CCOc1cc(N2CCOCC2)c(OCC)cc1NC(=O)COC(=O)C1CCCN1S(=O)(=O)c1ccccc1F (stereo not drawn),-29
21,CCOC(=O)c1cnc2oc3ccccc3n2c1=O,9.66
22,COc1ccc(-c2oc(=O)c3cc(OC)c(OC)cc3c2-c2cc(F)cc(OC)c2)cc1,28

row,SMILES,"hERG current change (%, negative = inhibition) at 10uM [%]"
1,COCCNC(C)C(=O)Nc1ccc(Br)cc1.Cl (stereo not drawn),29.6
2,Clc1cccc(CN2CCc3c([nH]c4ccccc34)C2)c1,-31.9
3,COc1cc(OC)c2c(-c3ccccc3)cc(=O)oc2c1C(CCN1CCCC(C)C1)c1ccc(N(C)C)cc1 (stereo not drawn),-30
4,Fc1ccc2[nH]c3c(NCc4ccccc4)ncnc3c2c1,10.5
5,CCN(CC)C(=O)Cn1cc(C(=O)C(=O)NCCc2c[nH]c3ccccc23)c2ccccc21,8.71
6,c1ccc(C2NCCn3cccc32)cc1 (stereo not drawn),2.74
7,Cc1ccc(CNc2nc3ccccc3n3cnnc23)cc1,-6.53
8,CCOC(=O)c1cc(CC)sc1/N=C/C1=C(O)CC(C)(C)CC1=O,-0.911
9,CC(C)(C)OC(=O)N/N=C/c1ccc(Br)cc1,0.944
10,CCc1ccc(N2CC(O)(c3cccs3)[N+]3=C2SCCC3)cc1.[Br-] (stereo not drawn),-70
11,Cn1c(CC(=O)Nc2ccccc2)nnc1SCC(=O)Nc1ccc(N2CCOCC2)cc1,25.5
12,Cc1ccc(C)c(NC(=O)C2CCCN(S(=O)(=O)c3cccnc3)C2)c1 (stereo not drawn),15.9
13,NNc1ncnc2c1cnn2-c1ccccc1,2.59
14,COc1ccc(-c2cc(=O)oc3cc(OC(C)C(=O)O)ccc23)cc1 (stereo not drawn),6.26
15,CN(CC(=O)Nc1ccc(N2CCOCC2)cc1)CC(=O)Nc1ccccc1[N+](=O)[O-],-25.3
16,Cc1cc(C)cc(C(=O)NN2CCOCC2)c1,-3.55
17,CCCCc1cc(=O)oc2cc(C)cc(OC(C)C(=O)NC(Cc3c[nH]c4ccc(O)cc34)C(=O)O)c12 (stereo not drawn),-0.205
18,COc1ccc(S(=O)(=O)N2CC=C(C(=O)Nc3ccc(NC(C)=O)cc3)CC2)cc1,65.1
19,CC#CCc1cc2ccccc2c(=O)o1,11.6
20,COc1ccc(-c2nc(SC(C)C(=O)c3c(N)n(C)c(=O)n(C)c3=O)n[nH]2)cc1 (stereo not drawn),8.3
21,CCOc1cc(C(=O)Nc2nnc(C)s2)cc(OCC)c1OCC,-1.56
22,O=C(COC(=O)c1cc(C(F)(F)F)cc(C(F)(F)F)c1)NCc1ccc(Cl)cc1,7.61

row,SMILES,"hERG current change (%, negative = inhibition) at 10uM [%]"
1,Cc1c(Cl)cccc1NC(=S)N1CCN(Cc2ccccc2)CC1,-3.12
2,O=C(NCC1CCCO1)C1CCC(N2C(=O)c3ccccc3C2=O)CC1 (stereo not drawn),5.87
3,CCC(C)[C@H](NC(=O)Nc1ccc(S(N)(=O)=O)cc1)C(=O)OC (stereo partly drawn),13.1
4,CCOC(=O)c1nn(-c2ccccc2C)c(=O)cc1OCC(=O)N1CCN(c2ccccc2)CC1,-24.6
5,CC(OC(=O)c1ccncc1)C(=O)Nc1cccc(Cl)c1 (stereo not drawn),-23.2
6,CC1(C)Oc2ccc(C(=O)Nc3ccccc3F)cc2N(CC(=O)N2CCOCC2)C1=O,-4.59
7,Cn1cc(/C=C2\SC(=O)N(c3ccccc3)C2=O)c2ccccc21,1.48
8,COc1ccc2c(c1)-c1nc(N)sc1CC2,-7.58
9,CC1(C)N=C(N)N=C(N)N1c1ccc(OCCCOc2ccccc2)c(Cl)c1.CCS(=O)(=O)O,-28.7
10,O=c1oc(-c2ccccc2)cc(Cl)c1Cl,6.6
11,Nc1ccc(C(=O)OCc2ccncc2)cc1[N+](=O)[O-],-28.7
12,CC(=O)Nc1nc2c(c3c1c(=O)oc1ccccc13)CCCCC2,-7.1
13,CC(O)CCc1nc2ccc(C(=O)O)cc2[nH]1.Cl (stereo not drawn),14.5
14,CC1=NN(c2ccccc2)C(=O)/C1=C/C=C/c1ccccc1,8.91
15,Cc1[nH]c(C)c(S(=O)(=O)N(Cc2ccccc2)C(C)(C)C)c1C(=O)N1CCCC1,-1.14
16,N#CCCn1c(SCC(=O)c2c[nH]c3ccccc23)nc2ccccc21,2.09
17,CC(OC(=O)CNC(=O)C12CC3CC(CC(C3)C1)C2)C(=O)Nc1ncc(Cl)cc1Cl (stereo not drawn),-6.7
18,CCOc1ccc(-n2c(SCC(=O)Nc3cc(C)on3)nc3c(c2=O)SCC3)cc1,-0.269
19,O=C(CSc1nnnn1-c1ccccc1)Nc1ncc(Cc2cccc(Cl)c2Cl)s1,21.6
20,O=[n+]1c2c(n([O-])c3c1CCC3)CCCC2,11.6
21,C=CCOC(=O)C1=C(C)NC(C)=C(C(=O)OCC=C)C1c1ccc(O)cc1,-30

# Reference: paper PMC4336329 (PLoS ONE, 2015)
